In all, about 3,200 compounds went through this assay and about 300 (9.4%) showed activity. This is a selection; strong and weak results do not stand in their true shares.
Tested on: A673/TR/shEF
Assay: cell viability (LOESS-normalised, relative to median of negative controls) (log2 ratio); higher = more viable cells (less compound effect), active = hit call of the paper (over 3 MAD below the median)
Details: treatment time: 72 h
In short: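 A673/TR/shEF Ewing sarcoma cells were plated at 1,500 per well in 384-well plates and cultured with or without doxycycline, added 24 h before compounds, to induce EWS-FLI1 shRNA knockdown. Library compounds at two or more concentrations, alongside DMSO controls, were applied for three days. Cell viability was measured by CellTiter-Glo luminescence on an Envision reader. Readings were LOESS-corrected per plate, divided by the median of negative controls and log2-transformed, and hits were wells lying at least three median absolute deviations from the median of all screened wells.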

[1] = 0.103 µM, library screen: screen3, EWS-FLI1 expression: high (no doxycycline)
[2] = 0.103 µM, library screen: screen3, EWS-FLI1 expression: low (doxycycline-induced shRNA knockdown)
[3] = 0.25 µM, library screen: screen2, EWS-FLI1 expression: high (no doxycycline)
[4] = 0.25 µM, library screen: screen2, EWS-FLI1 expression: low (doxycycline-induced shRNA knockdown)
[5] = 0.308 µM, library screen: screen3, EWS-FLI1 expression: high (no doxycycline)
[6] = 0.308 µM, library screen: screen3, EWS-FLI1 expression: low (doxycycline-induced shRNA knockdown)
[7] = 0.926 µM, library screen: screen3, EWS-FLI1 expression: high (no doxycycline)
[8] = 0.926 µM, library screen: screen3, EWS-FLI1 expression: low (doxycycline-induced shRNA knockdown)
[9] = 2.5 µM, library screen: screen2, EWS-FLI1 expression: high (no doxycycline)
[10] = 2.5 µM, library screen: screen2, EWS-FLI1 expression: low (doxycycline-induced shRNA knockdown)
[11] = 2.8 µM, library screen: screen3, EWS-FLI1 expression: high (no doxycycline)
[12] = 2.8 µM, library screen: screen3, EWS-FLI1 expression: low (doxycycline-induced shRNA knockdown)
[13] = 8.3 µM, library screen: screen3, EWS-FLI1 expression: high (no doxycycline)
[14] = 8.3 µM, library screen: screen3, EWS-FLI1 expression: low (doxycycline-induced shRNA knockdown)
[15] = 25 µM, library screen: screen3, EWS-FLI1 expression: high (no doxycycline)
[16] = 25 µM, library screen: screen3, EWS-FLI1 expression: low (doxycycline-induced shRNA knockdown)
[17] = 0.25 µM, library screen: screen1, EWS-FLI1 expression: high (no doxycycline)
[18] = 0.25 µM, library screen: screen1, EWS-FLI1 expression: low (doxycycline-induced shRNA knockdown)
[19] = 2.5 µM, library screen: screen1, EWS-FLI1 expression: high (no doxycycline)
[20] = 2.5 µM, library screen: screen1, EWS-FLI1 expression: low (doxycycline-induced shRNA knockdown)
[21] = 0.025 µM, library screen: screen2, EWS-FLI1 expression: high (no doxycycline)
[22] = 0.025 µM, library screen: screen2, EWS-FLI1 expression: low (doxycycline-induced shRNA knockdown)
[23] = 25 µM, library screen: screen2, EWS-FLI1 expression: high (no doxycycline)
[24] = 25 µM, library screen: screen2, EWS-FLI1 expression: low (doxycycline-induced shRNA knockdown)

Measured: cell viability (log2)

CCOC(=O)c1ncn2c1CN(C)C(=O)c1cc(F)ccc1-2
inactive: [1] 0.0569 | [2] 0.0805 | [3] 0.174 | [4] 0.0381 | [5] 0.0974 | [6] 0.058 | [7] 0.178 | [8] 0.0677 | [9] 0.062 | [10] -0.0188 | [11] 0.109 | [12] 0.099 | [13] 0.153 | [14] 0.0626 | [15] 0.132 | [16] 0.1

NCC(O)(CS(=O)(=O)O)c1ccc(Cl)cc1 (centres undefined)
inactive: [3] 0.186 | [4] 0.112 | [9] 0.0614 | [10] 0.0856

C[C@@H](N)C1CCC(C(=O)Nc2ccncc2)CC1 (some centres undefined)
inactive: [1] 0.00732 | [2] 0.0567 | [5] 0.0221 | [6] 0.0171 | [7] 0.0405 | [8] 0.0637 | [11] 0.092 | [12] 0.0378 | [13] 0.114 | [14] 0.124 | [15] 0.2 | [16] 0.112

CC(=O)CCCCn1c(=O)c2c(ncn2C)n(C)c1=O
inactive: [17] 0.0478 | [18] 0.0111 | [3] 0.0385 | [4] 0.102 | [19] 0.139 | [20] 0.0534 | [9] 0.0323 | [10] 0.0176

C[C@@H]1CC[C@@]2(OC1)O[C@H]1C[C@H]3[C@@H]4CC[C@H]5C[C@@H](O)CC[C@]5(C)[C@H]4CC(=O)[C@]3(C)[C@H]1[C@@H]2C
inactive: [17] 0.102 | [18] -0.00894 | [19] 0.127 | [20] 0.0766

COc1ccccc1CNC(=O)CN(c1ccc(Cl)cc1)S(C)(=O)=O
inactive: [17] -0.0129 | [18] 0.0689 | [19] 0.0751 | [20] 0.0379

C[C@H]1O[C@@H](n2cc(F)c(=O)[nH]c2=O)[C@H](O)[C@@H]1O
inactive: [21] 0.0333 | [22] 0.0231 | [18] 0.08 | [3] -0.00269 | [4] 0.0834 | [20] -0.0424 | [10] 0.0331
active: [17] -0.21 | [19] -1.24 | [9] -0.257 | [23] -2.97 | [24] -0.654

CC1(C)CC[C@]2(C(=O)O)CC[C@]3(C)C(=CC[C@@H]4[C@@]5(C)CC[C@H](O)C(C)(C)[C@@H]5CC[C@]43C)[C@@H]2C1
inactive: [17] 0.00326 | [18] 0.0504 | [19] 0.0878 | [20] 0.0225

CC(C)NC[C@H](O)COc1cccc2ccccc12
inactive: [3] 0.141 | [4] 0.0581 | [9] 0.131 | [10] 0.11

O=C(O)c1ccc(S(=O)(=O)N(Cl)Cl)cc1
inactive: [17] 0.0996 | [18] 0.0431 | [19] 0.144 | [20] 0.0571

O=C(Oc1ccccc1C(=O)O)c1ccccc1O
inactive: [17] 0.055 | [18] 0.0517 | [19] 0.0888 | [20] 0.06

COc1c(C)c2c(c(O)c1C/C=C(\C)CCC(=O)O)C(=O)OC2
active: [23] -0.533 | [24] -0.259 | [15] -0.488 | [16] -0.403
inactive: [21] 0.0161 | [22] 0.0434 | [1] 0.108 | [2] 0.173 | [17] 0.047 | [18] -0.0419 | [3] 0.0974 | [4] 0.108 | [5] 0.00407 | [6] 0.0569 | [7] 0.0822 | [8] 0.0245 | [19] 0.0367 | [20] 0.00349 | [9] 0.137 | [10] -0.00198 | [11] 0.147 | [12] 0.096 | [13] -0.0618 | [14] -0.0369

COC(=O)c1c(-c2cc(OC)c(OC)c(OC)c2)c2ccc(OCc3ccccn3)cc2c(=O)n1-c1ccc(N)cc1
inactive: [3] 0.233 | [4] 0.109 | [9] 0.207 | [10] 0.0911

C/C(=C\C(=O)Nc1ccccc1C(=O)O)c1ccc2ccccc2c1
inactive: [1] 0.0459 | [2] 0.0279 | [5] -0.00745 | [6] -0.00325 | [7] -0.0219 | [8] 0.0436 | [11] 0.00499 | [12] -1.3e-05 | [13] -0.0171 | [14] 0.0177 | [15] 0.0665 | [16] 0.0416

COc1ccc2c(c1)c(CC(=O)N1CCOCC1)c(C)n2C(=O)c1ccc(Cl)cc1
inactive: [3] 0.124 | [4] 0.153 | [9] 0.201 | [10] 0.242

CNCCCC12CCC(c3ccccc31)c1ccccc12
inactive: [1] 0.0546 | [2] 0.106 | [17] 0.144 | [18] 0.0864 | [3] 0.1 | [4] 0.0687 | [5] 0.0846 | [6] 0.0083 | [7] 0.0561 | [8] 0.12 | [19] 0.0405 | [20] 0.185 | [9] 0.103 | [10] 0.0925 | [11] 0.103 | [12] 0.0781 | [13] -0.0418 | [14] 0.0968 | [15] -0.0907 | [16] 0.0881

COc1cccc(CN2CCN(Cc3cccc([N+](=O)[O-])c3)CC2)c1
inactive: [17] 0.0814 | [18] 0.112

CCCCCC(=O)O[C@]1(C(C)=O)CC[C@H]2[C@@H]3CCC4=CC(=O)CC[C@]4(C)[C@H]3CC[C@@]21C
inactive: [17] 0.129 | [18] -0.0108 | [19] 0.14 | [20] 0.121

Oc1cc2c(cc1O)CN(C(=S)NCCc1ccc(Cl)cc1)CCC2
inactive: [3] 0.163 | [4] 0.0221 | [9] 0.0522 | [10] 0.0425

Nc1nc(Cl)nc2c1ncn2[C@@H]1O[C@H](COP(=O)(O)OP(=O)(O)OP(=O)(O)O)[C@H](O)C1O (some centres undefined)
inactive: [3] 0.146 | [4] 0.0571 | [9] 0.0213 | [10] 0.0355

CCCCCCCC/C=C\CCCCCCCC(=O)NCCO
inactive: [3] 0.126 | [4] 0.0596 | [9] 0.166 | [10] 0.108

CNCC[C@@H](Oc1ccc(C(F)(F)F)cc1)c1ccccc1
inactive: [3] 0.0975 | [4] 0.0761 | [9] 0.0807 | [10] 0.106

COc1ccc(C(=O)O)c(O)c1OC
inactive: [17] 0.0449 | [18] 0.066 | [19] 0.127 | [20] -0.0146

Cc1cc(C)cc(OCC2CNC(=O)O2)c1 (centres undefined)
inactive: [17] 0.0439 | [18] 0.0798 | [19] 0.0712 | [20] -0.0117

C[C@]12C=CC(=O)C=C1CC[C@H]1[C@@H]3C[C@@H](O)[C@](O)(C(=O)CO)[C@@]3(C)C[C@H](O)[C@@]12F
inactive: [1] 0.102 | [2] 0.0482 | [17] 0.0174 | [18] -0.0301 | [3] 0.00413 | [4] 0.089 | [5] 0.13 | [6] 0.0928 | [7] 0.0937 | [8] 0.0919 | [19] 0.162 | [20] -0.0256 | [9] 0.208 | [10] 0.18 | [11] 0.119 | [12] -0.0445 | [13] 0.145 | [14] 0.095 | [15] 0.145 | [16] 0.173

CC1(C)O[C@@H]2C[C@H]3[C@@H]4CCC5=CC(=O)CC[C@]5(C)[C@@]4(F)[C@@H](O)C[C@]3(C)[C@]2(C(=O)CCl)O1
inactive: [17] 0.0561 | [18] -0.0391 | [19] 0.0522 | [20] -0.14

CC(C)Oc1ccc2c(=O)cc(-c3ccccc3)oc2c1
inactive: [17] 0.0261 | [18] 0.0825 | [19] 0.241 | [20] 0.291

CC(=O)O[C@@H]1CC2C(C)(C)C=CC(=O)[C@]2(C)C2CC[C@@]3(C)[C@H](c4ccoc4)OC(=O)C4OC43[C@@]21C (some centres undefined)
inactive: [17] 0.059 | [18] 0.0804 | [19] 0.118 | [20] 0.149

CCOC(=O)c1c(C)cc(O)c(C=O)c1O
inactive: [17] 0.0533 | [18] 0.0573 | [19] 0.128 | [20] -0.00093

Cn1ccnc1
inactive: [3] 0.126 | [4] 0.118 | [9] 0.0701 | [10] 0.0866

CCN(CC)CCOC(=O)c1ccc(N)cc1
inactive: [17] 0.112 | [18] 0.096 | [3] 0.0816 | [4] 0.0902 | [19] 0.138 | [20] 0.177 | [9] 0.0857 | [10] 0.112

CC[C@H](C)C(=O)O[C@H]1C[C@@H](C)C=C2C=C[C@H](C)[C@H](CC[C@@H]3C[C@@H](O)CC(=O)O3)[C@H]21
inactive: [17] 0.0174 | [18] -0.0358 | [19] 0.109 | [20] 0.0431

CN=C(N)NCCCC(N)C(=O)O (centres undefined)
inactive: [17] 0.0723 | [18] 0.0246 | [19] -0.0207 | [20] -0.0108

COc1cccc(-c2cc(=O)c3cc(OC)ccc3o2)c1
inactive: [17] 0.0549 | [18] 0.00406 | [19] 0.217 | [20] 0.137

O=c1[nH]c2cc(C(F)(F)F)ccc2n1-c1cc(C(F)(F)F)ccc1O
inactive: [3] 0.103 | [4] 0.119 | [9] 0.0481 | [10] 0.0523

Source: the supplement of paper PMC6089552
